Experimental data as given in PubChem BioAssay AID886 (National Center for Advancing Translational Sciences (NCATS), 2007).
The whole screen tested about 73,000 compounds, of which about 2,500 (3.4%) were called active. This list was built around the results that the source calls inconclusive (neither active nor inactive); the mix of calls is not that of the screen. Calls come from the whole dose curve; as a rule, active = well fitted inhibition curve with a large enough effect; inconclusive = small, poorly fitted or top-dose-only effect; inactive = no such curve, though single readings can be large or run the other way. A potency beside an inconclusive call is a rough fit, not a confirmed value.

target: 3-hydroxyacyl-CoA dehydrogenase type-2 (Homo sapiens) (UniProt Q99714); test: qHTS Assay for Inhibitors of HADH2 (Hydroxyacyl-Coenzyme A Dehydrogenase, Type II); conditions: recombinant HADH2, NADH fluorescence, beta-hydroxybutyryl-CoA; series mostly up to 57.1 µM; note: nearly all actives have a fitted effect of over 60% in size
Method in brief: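 NADH fluorescence (ex 360/em 450 nm) read every 30 s for 4 min; activity taken as last-minus-first time point difference. Enzyme 20 nM, NAD+ 1 mM, beta-hydroxybutyryl-CoA 90 uM, pH 9.0 Tris buffer.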
Potency is the fitted concentration of half-maximal effect; tags give direction and shape of the fitted curve.

Sequence of UniProt Q99714 (Q99714 whole entry, looked up): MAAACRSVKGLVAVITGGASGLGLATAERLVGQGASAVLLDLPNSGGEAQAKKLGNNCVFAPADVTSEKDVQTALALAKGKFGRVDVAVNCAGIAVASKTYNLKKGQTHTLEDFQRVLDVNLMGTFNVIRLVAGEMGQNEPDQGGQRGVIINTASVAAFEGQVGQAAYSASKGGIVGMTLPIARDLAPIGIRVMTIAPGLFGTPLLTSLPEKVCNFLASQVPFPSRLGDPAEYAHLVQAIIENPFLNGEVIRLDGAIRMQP
Sequence of UniProt Q99714 (Q99714 whole entry, looked up): as above

Compound	Potency
Cc1ccc(/C=c2\sc3nc(-c4ccco4)nn3c2=O)o1	active: 15.8 µM
Cc1cccc(Nc2nc(N)nc(CN3CCN(C)CC3)n2)c1	inactive
Cc1oc(C)c2c(=O)ccc3c(c12)OC(N)=C(C#N)C3c1ccccc1 (stereo not given)	inconclusive: 31.6 µM [inhibitor, single point]
CCCc1nc2c(sc3nc4c(cc32)COC(C)(C)C4)c(=O)n1Cc1ccco1	inconclusive: 12.6 µM [inhibitor, partial curve]
N#CC1=C(N)Oc2n[nH]c(-c3ccccc3)c2C1c1cccnc1 (stereo not given)	inconclusive: 15.8 µM [inhibitor, partial curve]
COc1ccccc1CNc1ncncc1-c1cccc(NS(C)(=O)=O)c1	inconclusive: 20 µM [inhibitor, partial curve]
O=C1c2ccccc2S(=O)(=O)N1CC1CC(c2ccccc2)=NO1 (stereo not given)	inconclusive: 5.01 µM [inhibitor, single point]
CCOC(=O)c1cnc(-n2nc(C)cc2C)nc1NCc1ccccc1	inactive
O=C(Nc1ccccc1)c1ccc2nc(-c3ccco3)c(-c3ccco3)nc2c1	active: 7.94 µM
Nc1nc2n(n1)C(c1ccco1)CC(c1ccc(Cl)cc1Cl)N2 (stereo not given)	inactive
CCc1ccc2oc(=O)cc(CN3CCOCC3)c2c1	inactive
CCCCN(C)CCCNC(=O)c1ccc(N2CCCC2=O)cc1	inactive
Cn1c(C(=O)N2CCN(c3ccc(Cl)cc3)CC2)cc2c(=O)n(C)c3ccccc3c21	inactive
O=C(O)CCC(=O)N1CCN(c2ccccn2)CC1	inconclusive: 31.6 µM [inhibitor, single point]
COc1cccc(-c2nccc(NCc3cccnc3)n2)c1	inconclusive: 31.6 µM [inhibitor, single point]
Cn1cnc2c(N3CCCCC3)nccc21	inactive
Cc1c(-n2cc(C(=O)O)c(=O)c3cc(F)c(N4CCCC4)c(F)c32)c(=O)n(-c2ccccc2)n1C	inconclusive: 6.31 µM [inhibitor, single point]
Cc1ccccc1NC(=O)c1ccccc1O	inconclusive: 39.8 µM [inhibitor, single point]
CCOc1ccc(Nc2nc(C)cc(C)c2C#N)cc1	inconclusive: 25.1 µM [inhibitor, single point]
CCCCCn1c(SCCC(C)C)nc2c1c(=O)[nH]c(=O)n2C	inconclusive: 20 µM [inhibitor, single point]
C=COC(=O)CSc1snc(SCC(=O)OC)c1C#N	inconclusive: 25.1 µM [inhibitor, single point]
Cc1cc(NCCCN)nc(-c2ccccc2O)n1	inconclusive: 25.1 µM [inhibitor, single point]
CCOC(=O)c1sc(=S)n2c1[nH]c(=O)c1ccc(C(=O)OC)cc12	active: 1 µM
O=C(Nn1cnnc1)c1ccccc1-c1ccccc1	inactive
O=C(Nc1cnccn1)c1ccncc1	inactive

Compound	Potency
Cc1cc2nn(-c3cccc4ccccc34)nc2cc1N	active: 25.1 µM
CCc1cc(C=NC2CCCCC2)c(O)s1	inconclusive: 25.1 µM [inhibitor, single point]
O=C(Nc1ccccn1)C(NS(=O)(=O)c1cccc2nsnc12)c1ccccc1 (stereo not given)	inconclusive: 31.6 µM [inhibitor, single point]
COC(=O)c1nc(-c2ccccc2)oc1N(C)C	active: 25.1 µM
COc1ccccc1C(=O)Nc1ccc(-c2nnc(SCC(=O)O)n2C)cc1	inconclusive: 31.6 µM [inhibitor, single point]
c1ccc2c3c([nH]c2c1)-c1[nH]ncc1CC3	active: 10 µM
Clc1ccccc1-c1cc(NCCN2CCOCC2)ncn1	inconclusive: 39.8 µM [inhibitor, single point]
Cc1ccc(F)cc1NC(=O)c1c(-c2ccccc2)noc1C	inactive
CC(Oc1ccccc1)C(=O)NC1CC(C)(C)NC(C)(C)C1 (stereo not given)	inactive
COc1ccccc1-c1cncnc1N(C)Cc1ccco1	inconclusive: 15.8 µM [inhibitor, partial curve]
N=C(N)S/C=C\C(=O)O	active: 5.01 µM
c1csc(-c2noc(COc3ccc4c(c3)CCCC4)n2)c1	inconclusive: 7.94 µM [inhibitor, single point]
COc1ccc(OC)c(S(=O)(=O)Nc2ccc(O)c(Sc3ncn[nH]3)c2)c1	active: 5.01 µM
O=C(CC(SCc1ccco1)c1ccc(O)cc1)c1cccs1 (stereo not given)	inconclusive: 20 µM [inhibitor, single point]
CCOC(=O)N1CCN(C(=O)Nc2ccc3nc(-c4ccccn4)c(-c4ccccn4)nc3c2)CC1	inconclusive: 39.8 µM [inhibitor, single point]
N#Cc1nc(Cc2cccc3ccccc23)oc1NCCCn1ccnc1	inactive
CC(=O)Nc1ccc(NC(C)=O)s1	inconclusive: 25.1 µM [inhibitor, partial curve]
COc1ccc(CC(=O)Nc2oc(-c3ccccc3)c(-c3ccccc3)c2C#N)cc1OC	inconclusive: 39.8 µM [inhibitor, single point]
NC(=O)SCC(=O)Nc1ccc2ncccc2c1	inconclusive: 0.794 µM [inhibitor, full curve, poor fit]
COc1ccc2c(OC)c3ccoc3nc2c1OC	inconclusive: 5.01 µM [inhibitor, partial curve, poor fit]
O=C1OCCC1Sc1nc2ccccc2s1 (stereo not given)	inconclusive: 25.1 µM [inhibitor, partial curve]
CCCCn1c(SCN2C(=O)c3ccccc3C2=O)nc2cc(S(N)(=O)=O)ccc21	inconclusive: 25.1 µM [inhibitor, single point]
O=C(CCc1nc2ccccc2[nH]c1=O)OCc1ccc(S(=O)(=O)N2CCOCC2)cc1	inactive
CCOc1ccc(C(=O)CCN2CCCCCC2)cc1	inconclusive: 3.16 µM [inhibitor, full curve]
CCOC(=O)C(CC)Sc1nc2c(c(=O)[nH]c(=O)n2C)n1CCc1ccccc1 (stereo not given)	inconclusive: 12.6 µM [inhibitor, partial curve]
